B1: OR4K15 (parent)
chain: GUUAACGGUCAUAGGCCAUGGAAACUAGGAGCACCAUUUCGCUGCCAGUGAAGAAAUGAACAAAGAAAAUCUGGGCCAGGCAGGCAUCAAAAGAAAUAGUCUUGCGCUCAACCAGAAAGUCUGUAAUCAUUUUAAGGGUA

Read counts are not given, so values of variants with three or more changes are uncertain.

The series covers variants of B1. The series can be described thus: self-cleavage, relative activity (ratio to wild type); higher = more cleavage; in vitro, sequencing; the parent is a self-cleaving ribozyme.
Turning to GUUAACGGUCGUAGGCCAAGGAAACUAGGAGCACCAUUUCGCUGCCAGUGAAGAAAUGAACAAAGAAAAUCUGGGCCGGGCAGGCAUCAAAAGAAAUAGUCUUGCGCUCAACCAGAAAGUCCGUAAUCAUUUUAAGGGUA, the self-cleavage is 0.22.
In the case of GUUAACGGUCGUAGGCCAUGGAAACUAGGAGCACCAUUUCGCUGCCAGAGAAGAAAUGAACAAAGAAAAUCUGGGCCAGGCAGGCAUCAAAAGAAAUAGUCUUGCGCUCAACCAGAAAGUCUGUAAUCAUUUUAAGGGCA, the self-cleavage was determined as 1.46.
To GUUAACGGUCGUAGGCCAUGGAAACUAGGAGCACCAUUUCGCAGCCAGUGAAGAAAUGAACAAAGAAAAUCUGGGCCAGGCAGGCAUCAAUAGAAAUAGUCUUGCGCUCAGCCAGAAAGUCUGUAAUCAUUUUAAGGGUA belongs 0.11; to GUUAACGGUCGUAGGCCAUGGAAACUAGGAGCACCAUCUCGCUGCCAGUGAAGAAACGAACGAAGAAAAUCUGGGCCAGGCAGGCAUCAAAAGAAAUAGUCUUGCGCCCAACCAGAAAGUCUGUAAUCAUUUUAAGGGUA, 0.07; to GUUAACGGUCGUAGGCCAUGGAAACUAGGAGCACCAUUCCGCUGCCAGUGAAGAAAUGAACAAAGAAGAUCUGGGCCAGGCAGGCAUCAAAAGAAAUAGUCUUGCGCUCAACCAGAAAGUCAGUAAUCAUUUUAAGGGUA, 1.47.
On to GUUAACGGUCGUAGGCCAUGGAAACUAGGAGCACCAUUUCGCUGCCAGUGAAGAAAUGAACAAAGAAAAUCUGGCCCAGGCAGGCAUCAAAAGGAAUAGUCUUGCGCUCAACCAGAAAGUCUGUAAUCAUUUUAAGGGUA, for which the self-cleavage turned out to be 0.24.
For the variant GUUAACGGUCGUAGGCCAUGGAAACUAGGAGCACCAUUUCGCCGCCAGUGAAGAAAUGAACAAAGAAAAUCUGGGCCAGGCAGGCAUCAAAAGAAAUAGUCUUGCGCUCAACCAGAAAGUCUGUAAUCAUUCUAAGGGUA, the self-cleavage turned out to be 1.1.
For GUUAACGGUCGUAGGCCAUGGAAACUAGGAGCACCAUUUCGCUACCAGUGAAGAAAUGAACAAAGAAAAUCUGGGCCAGGCAGGCAUCAAAAGAAAUAGUCUUGCGCUCAACCAGAAGGUCUGUAAUCGUUUUAAGGGUA the value was 0.49; for GUUAACGGUCGUAGGCCAUGGAAACUAGGAGCACCAUUUCGCCGCCAGUGAAGAAAUGAACGAAGAAAAUCUGGGCCAGGCAGGCAUCAAAAGAAAUAGUCUUGCGCUCAACCAGAAAGUCUGUAAUCAUUUUAAGGGUA, 1.31; for GUUAACGGUCGUAGGCCAUGGAAACUAGGAGCACCAUUCCGCUGCCAGCGAAGAAAUGAACAAAGAAAAUCUGGGCCAGGCAGGCAUCAAGAGAAAUAGUCUUGCGCUCAACCAGAAAGUCUGUAAUCAUUUUAUGGGUA, 0.78.
Regarding GUUAACGGUCGUAGGCCAUGGAAACUAGGAGCACCAUUUCGCUGCCAGCGAAGAAAUGAACAAAGAAAAUCUGGGCCAGGCAGGCAUCAAAAGAAAUAGUCUUGCGCUCAACCAGAAAGUCUGUAAUCGUUUUAAGGGUA, the self-cleavage turned out to be 0.9.
Consider GUUAACGGUCGUAGGCCACGGAAACUAGGAGCACAAUUUCGCUGCCAGUGAAGAAAUGAACAAAGAAAACCUGGGCCAGGCUGGCAUCAAAAGAAAUAGUCUUGCGCUCAACCAGAAAGUCUGUAAUCAUUUUAAGGGUA, for which the self-cleavage is 0.17.
Turning to GUUAACGGUCGUAGGCCAUGGAAACUAGGAGCACCACUUCGCUGCCAGUGAAGAAAUGAACAAAGAAAAUCUGGGCCUGGCAGGCAUCAAAAGAAAUAGUCUUGCGCUCAACCAGAAAGUCUGUAAUCGUUAUAAGGGUA, the self-cleavage worked out at 0.15.
Turning to GUUAACGGUCGUAGGCCAUGGAAACUAGGAGCACCAUUUCGCUGCCAGCGAAGAAAUGAACAAAGAAAAUCUGGGCCAGGCAGGCAUCAAAAGAACUAGUCUUGCGCUCAACCAGGAAGUCUGUAAUCAUUUUAAGGGUA, the self-cleavage turned out to be 0.25.
GUUAACGGUCGUAGGCCAUGGAAACUAGGAGCACCACUUCGCUGCCAGUGAAGAAAUGAACAAAGAAAAUCUGGGCCAGGCAGGCAUCAAAAGGAAUAGUCUUGCGCUCAAUCAGAAAGUCCGUAAUCAUUUUAAGGGUA: the self-cleavage is 0.01.
In the case of GUUAACGGUCGAGGGCCAUGGAAACUAGGAGCACCAUUUCGCUGCCAGUGAAGAAAUGAACAAAGAAAAUCUGGGCCAGGCAGGCAUCAAAAGAAAUAGUCUUGCGCUCAACCAGAAAGUCUGUAAUCAUUUUAAGGGUA, the self-cleavage is 0.98.
Regarding GUUAACGGUCGUAGGCCAUGGAAACUAGGAGCACCAUUUCGCUGCCAGUAAAGAAAUGGACAAAGAAAAUCUGGGCCAGGCAGGCAUCAAAAGAAAUAGUCUUGCGCUCAACCAGAAAGUCUGUAAUCAUUUUAAGGGUA, the self-cleavage came to 0.68.
GUUAACGGUCGUAGGCCAUGGAAACUAGGAGCACCAUUUCGCUGCCAGUAAAGAAAUGAACGAAGAAAAUCUGGGCCAGGCAGGCAUCAAAAGAAAUAGUCUUGCGCUCAACCAGAAAGUCUGUAAUCAUUUUAAGGGUA: the self-cleavage was found to be 1.54.
Consider GUUAACGGUCGUAGGCCAUGGAAACCAGGAGCACCAUUUCGCUGCCAGUGAAGAAAUGAACAAAGAAAAUCUGGGCCAGGCAGGCAUCAAAAGAAACAGUCUUGCGCUCAACCAGAAAGUCUGUAAUCAUUUUAAGGGUA, for which the self-cleavage was determined as 0.17.
On to GUUAACGGUCGUAGGCCAUGGAAACUAGGAGCACCAUUUCGCUGCCAGUGAAGAAAUUAACAAAGAAAAUCUGGGCCAGGCAGGCUUCAAAAGAAAUAGUCUUGCGCUCAACCAGAAGGUCUGUAAUCAUUUUAAGGGUA, for which the self-cleavage was determined as 1.04.
On to GUUAACGGUCGUAGGCCAUGGAAACCAGGAGCACCAUUUCGCUGCCAGUGAAGAAAUGAACAAAGAAAACCCGGGCCAGGCAGGCAUCUAAAGAAAUAGUCUUGCGCUCAACCAGAAAGUCUGUAAUCAUUUUAAGGGUA, for which the self-cleavage was determined as 0.29.
With GUUAACGGUCGUAGGCCAUGGAAACUAGGAGCACCAUUUCGCUGCCAGUGAAGAAAUGAACAAAGAAAAUCUGGACCAGGCAGGCACUAAAAGAAAUAGUCUUGCGCUCAACCAGAAAGUCUGUAAUCAUUUUAAGGGUA, the self-cleavage stood at 0.1.
Turning to GUUAACGGUCGUAGGCCAUGGAAACUAGGAGCACCAUUUCGCUGCCAGCGAAGAAAUGAACAGGGAAAAUCUGGGCCAGGCAGGCAUCAAAAGAAAUAGUCUUGCGCCCAACCAGAAAGUCUGUAAUCAUUUUAAGGGUA, the self-cleavage is 0.01.
As for GUUAACGGUCGUAGGCCAUGGAAACUAGGAGCACCAUUUCGCUGCCAGUGAAGAAAUUAACAAAGAAAAUCUGGGCCAGGCAGGCAUCAAAAGAAAUAGUCUUGCGCUCAACCAGGAAGUCUGUAAUCAUCUUAAGGGUA, the self-cleavage was 0.29.
For GUUAACGGUCGUAGGCCAUGGAAACUAGGAGCACCAUUUCGCUGCCAGCGAAGAAAUGAUCAAAGAAAAUCUGGGCCAGGCAGGCAUCAAAAGAAAUAGUCUUGCGCUCAACCAGAAAGUCUGUAAUCAUUUUAAGGGUA, the self-cleavage stood at 0.7.
GUUAACGGUCGUAGGCCAUGGAAACUAGGAGCACCAUUUCGCCGCCAGUGAAGAAAUGAACAAAGAAAAUCUGGGCCAGGCAGGCAUCAAAAGAAAUAGUAUUGCGCUCAACCAGAAAGUCUGUAAUCAUUUUAAGGGUA: the self-cleavage worked out at 0.09.
GUUAACGGUCGUAGGCCAUGGAAACUAGGAGCACCACUUCGCUGCCAGUGAAGAAAUGAACAAAGAAAAUCUGGGCCAGGCAGGCAUCAAAAGAAGUAGUCUUGCGCUCAACCAGAAAGUCUGUAAUCAUUUUAAGGGUA: the self-cleavage was determined as 1.08.
For the variant GUUAACGGUCGUAGGCCAUGGAAACUAGGAGCACCAUUUCACUGCCAGUGAAGAAGUGAACAAAGAAGAUCUGGGCCAGGCAGGCAUCAAAAGAAAUAGUCUUGCGCUCAACCAGAAAGUCUGUAAUCAUUUUAAGGGUG, the self-cleavage came out at 1.22.
Turning to GUUAACGGUCGUAGGCCAUGGAAACUAGGAGCACCAUUCCGCUGCCAGUGAAGAAAUGAACAAAGAAAAUCUGGGCCAGGCAGGCAUCAAAUGAAACAGUCUUGCGCUCAACCAGAAAGUCUGUAAUCAUUUUAAGGGUA, the self-cleavage is 0.4.
Take GUUAACGGUCGUAGGCCAUGGAAACUAGGAGCACCAUUUCGCUGCCAGCGAAGAAAUGAACCAAGAAAAUCUGGGCCAGGCAGGCAUCAAAAGAAAUAGUCCUGCGCUCAACCAGAAAGUCUGUAAUCAUUAUAAGGGUA: the self-cleavage stood at 1.26.
For GUUAACGGUCGUAGGCCAUGGAAACUAGGAGCACCAUUACGCUGCCAGUGAAGAAAUGAACUAAGAAAAUCUGGGCCAGGCAGGCAUCAAAAGAAAUAGUCUUGCGCUCAACCAGAAAGUCUGUAAUCACUUUAAGGGUA, the self-cleavage was found to be 0.36.
Take GUUAACGGUCGUAGGCCAUGGAAACUAGGAGCACCAUUUCGCUGCCAGUGAAGAAAUGAACAAAGAAAAUCUGAGCCAGGCAGGCAUCAAAAGAAAUAGUCUUGCGCUCAACCAGAAUGUCUGUAAUCAUCUUAAGGGUA: the self-cleavage came out at 0.08.
For GUUAACGGUCGUAGGCCAUGGAAACUAGGAGCACCAUUUCGCUGCCAGAGAAGAAAUGGACAAAGAAGAUCUGGGCCAGGCAGGCAUCAAAAGAAAUAGUCUUGCGCUCAACCAGAAAGUCUGUAAUCAUUUUAAGGGUA, the self-cleavage is 0.51.
Turning to GUUAACGGUCGUAGGCCAUGGAAACUAGGAGCACCAUUUCGCCGCCAGUGAAGAAAUGAACGAAGAAAAUCUGGGCCAGGCAGGCAUCAAAAGAAGUAGUCUUGCGCUCAACCAGAAAGUCUGUAAUCAUUUUAAGGGUA, the self-cleavage was determined as 0.42.
For GUUAACGGUCGUAGGCCAUGGAAACUAGGAGCACCACUUCGCUGCCAGUAAAGAAAUGAACAAAGAAGAUCUGGGCCAGGCAGGCAUCAAAAGAAAUAGUCUUGCGCUCAACCAGAAAGUCUGUAUUCAUUUUAAGGGUA the value was 0.43; for GUUAACGGUCGCAGGCCAUGGAAACUAGGAGCACCACUUCGCUGCCAGUGAAGAAACGAACAAAGAAAAUCUGGGCCAGGCAGGCAUCAAAAGAAAUAGUCUUGCGCUCAACCAGAAGGUCUGUAAUCACUCUAAGGGUA, 0.35.
Consider GUUAACGGUCGUAGGCCAUGGAAACUAGGAGCACCAUUUCGCCGCCAGUGAUGAAAUGAACAAAGAAAAUCUGGACCAGGCAGGCAUCAAAAGAAAUAGUCUAGCACUCAACCAGAAAGUCUGUAAUCAUUUUAAGGGUA, for which the self-cleavage worked out at 0.02.
Turning to GUUAACGGUCGUAGGCCAUGGAAACUAGGAGCACCAUUUCGCAGCCAGUGAAGAAAUGAACAAAGAAAAUCUGGGCCAGGCAGGCAUCAAAAGGAAUAGUCCUGCGCUCAACCAGAAAGUCUGCAAUCAUUUUAAGGGUA, the self-cleavage turned out to be 1.86.
Take GUUAACGGUCGUAGGCCAUGGAAACUAGGAGCACCAUUACGCUGCCAGUGAAGAAAUGAACAAAGAAAAUCUGGGCCAGGCAGGCAUCAAAGGAAAUAGUCUUGCGCUCAACCAGAAAGUCUGUAAUCAUUUUAAGGGUA: the self-cleavage was determined as 0.21.
Consider GUUAACGGUCGUAGGCCAAGGGAACUAGGAGCACAAUUUCGCUGCCAGUGAAGAAAUGGACAAAGAAAAUCUGGGCCAGGCAGGCAUCAAAAGAAAUAGUCUUGCGCUCAACCAGAAAGUCUGUAAUCAUUUUAAGGGUA, for which the self-cleavage turned out to be 0.55.
For GUUAACGGUCGUAGGCCAUGGAAACUAGGAGCACCAUUCCGCUGCCAGUGAAGAAAUGAACAAAGAAAAUCUGGGCCAGGCAGGCAUCAAAAGAAAUAGUCUUGCGCUCAACCAGAAAGUCUGUAAUCAUUUUAAGGGAA, the self-cleavage was determined as 1.36.

Values taken from the RNAGym collection of RNA variant scans (doi:10.7554/elife.90254).
